Reference: PubChem BioAssay (NCI)
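Protocol summary: plate cells (96-well), add compound at 5 concentrations, incubate 48 h, interpolate endpoints linearly. Here, GI50 denotes the concentration required for 50% inhibition of growth.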 Certain results were filed several times, with different values. This list holds those alone. There may be further records. For some of these results: The values listed for one entry repeat one measurement across runs, samples, wells, individuals or studies. What stands in brackets tells the records apart. Letters count within one entry.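 TGI: concentration producing complete growth inhibition.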 For some of these results: The tests behind the records often covered other concentration ranges, which the source does not state; a value can be the end of its range.

How the values were obtained:
Test in all cases: NCI anticancer screen, dose series, 48 h
CCRF-CEM leukemia = tested on: CCRF-CEM leukemia
NCI-H460 lung = tested on: NCI-H460 lung
HCT-116 colon = tested on: HCT-116 colon
RPMI-8226 leukemia = tested on: RPMI-8226 leukemia
786-0 renal = tested on: 786-0 renal
SN12C renal = tested on: SN12C renal
CAKI-1 renal = tested on: CAKI-1 renal
OVCAR-5 ovarian = tested on: OVCAR-5 ovarian
HCT-15 colon = tested on: HCT-15 colon
EKVX NSCLC = tested on: EKVX NSCLC
HL-60(TB) leukemia = tested on: HL-60(TB) leukemia
BT-549 breast = tested on: BT-549 breast
SF-268 CNS = tested on: SF-268 CNS
RXF 393 renal = tested on: RXF 393 renal
SF-539 CNS = tested on: SF-539 CNS
SK-MEL-2 melanoma = tested on: SK-MEL-2 melanoma
SK-MEL-28 melanoma = tested on: SK-MEL-28 melanoma
KM12 colon = tested on: KM12 colon
XF 498 CNS = tested on: XF 498 CNS
SK-MEL-5 melanoma = tested on: SK-MEL-5 melanoma
SNB-75 CNS = tested on: SNB-75 CNS
UACC-62 melanoma = tested on: UACC-62 melanoma
SK-OV-3 ovarian = tested on: SK-OV-3 ovarian
DMS 273 small cell lung = tested on: DMS 273 small cell lung
M14 melanoma = tested on: M14 melanoma

COc1ccccc1/C=C(/C)[N+](=O)[O-]
GI50 (CCRF-CEM leukemia): 404 nM [sample A, 1 test] and 13 nM [sample B, 1 test] | TGI (NCI-H460 lung): > 100 µM [sample A, 1 test] and 4.84 µM [sample B, 1 test] | TGI (HCT-116 colon): > 100 µM [sample A, 1 test] and 4.95 µM [sample B, 1 test] | TGI (RPMI-8226 leukemia): 960 nM [sample A, 1 test] and > 100 µM [sample B, 1 test]

C=C1C[C@H]2C=Nc3cc(OCCCOc4cc5c(cc4OC)C(=O)N4CC(=C)C[C@H]4C=N5)c(OC)cc3C(=O)N2C1
TGI (786-0 renal): 16.2 nM and > 100 µM | TGI (SN12C renal): 17.5 nM and 2.63 µM | TGI (CAKI-1 renal): 714 nM and 37.2 nM | TGI (OVCAR-5 ovarian): 45.5 nM [1 test] and 1.19 µM [mean of 3 tests] | TGI (HCT-15 colon): 976 nM and > 51.7 µM | TGI (EKVX NSCLC): 457 nM [1 test] and 5.06 µM [mean of 3 tests] | TGI (HL-60(TB) leukemia): 2.43 nM and > 4.64 µM | TGI (BT-549 breast): 48.8 nM and 560 nM | TGI (SF-268 CNS): 56.7 nM and 2.22 µM

CCCCCC(=O)N[C@@H](c1ccco1)[C@@H](O)C(=O)O[C@H]1C[C@@]2(O)[C@@H](OC(=O)c3ccccc3)[C@@H]3[C@]4(OC(C)=O)CO[C@@H]4C[C@H](O)[C@@]3(C)C(=O)[C@H](OC(C)=O)C(=C1C)C2(C)C
TGI (RXF 393 renal): 20.9 nM and > 25 µM

COC(=O)NC1C(C)OC(OC2C/C=C(/C)C3C=CC4C(OC5CC(OC6CCC(OC7CC(O)C(OC8CCC(O)C(C)O8)C(C)O7)C(C)O6)C(OC(C)=O)C(C)O5)C(C)CC(C)C4C3(C)/C(O)=C3/C(=O)OC4(CC(C=O)=CC(O)C4/C=C\2C)C3=O)CC1(C)[N+](=O)[O-] (stereo not drawn)
TGI (SF-539 CNS): 1.23 µM and 78.1 nM | TGI (SK-MEL-2 melanoma): 2.1 µM and 200 nM | TGI (SK-MEL-28 melanoma): 1.89 µM and 135 nM

COc1cc2c(c(OC)c1OC)-c1ccc(SC)c(=O)cc1[C@@H](NCc1ccc(F)cc1)CC2
TGI (KM12 colon): 9.16 nM and 416 nM | TGI (XF 498 CNS): < 7.5 nM and 6.06 µM | TGI (SK-MEL-5 melanoma): < 7.5 nM and 10.9 µM | TGI (NCI-H460 lung): 75 µM and 3.76 µM | TGI (SNB-75 CNS): 75 µM and 30.2 nM | TGI (SK-MEL-2 melanoma): < 7.5 nM and 25.9 µM | TGI (UACC-62 melanoma): < 7.5 nM and 11.2 µM | TGI (SF-268 CNS): 43.9 µM and 1.75 µM | TGI (SK-OV-3 ovarian): 10.9 µM and 364 nM | TGI (DMS 273 small cell lung): < 7.5 nM and 7.33 µM | TGI (M14 melanoma): < 7.5 nM and 10.2 µM
